Measured values from PubChem BioAssay AID360 (National Center for Advancing Translational Sciences (NCATS), 2006).
In all, about 48,000 compounds went through this assay and about 550 (1.1%) were called active. About 4% were inconclusive and are not listed. No stated cut-off is given here; in the data, active means potency below about 15 µM; inconclusive means mostly about 16 µM to 33 µM; inactive means weaker than that. This is one part of the list.

molecular target: Lysosomal acid glucosylceramidase (Homo sapiens) (UniProt P04062); experiment: Glucocerebrosidase; conditions: purified enzyme, resorufin glucoside fluorescence (screen aimed at inhibitors), 20 min;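 further: the screen sought inhibitors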
Method in brief: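 Normal human glucocerebrosidase (0.2 nM final) was assayed with resorufin β-D-glucopyranoside (30 uM final) in 50mM citric acid/KH2PO4, 10mM sodium taurocholate, 0.01% tween-20, pH 5.9. Compounds were titrated; fluorescence (Ex 548, Em 600) read after 20 min at RT.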
Potency means the concentration at half of the fitted maximal effect.

Sequence of UniProt P04062 (P04062 whole entry, looked up): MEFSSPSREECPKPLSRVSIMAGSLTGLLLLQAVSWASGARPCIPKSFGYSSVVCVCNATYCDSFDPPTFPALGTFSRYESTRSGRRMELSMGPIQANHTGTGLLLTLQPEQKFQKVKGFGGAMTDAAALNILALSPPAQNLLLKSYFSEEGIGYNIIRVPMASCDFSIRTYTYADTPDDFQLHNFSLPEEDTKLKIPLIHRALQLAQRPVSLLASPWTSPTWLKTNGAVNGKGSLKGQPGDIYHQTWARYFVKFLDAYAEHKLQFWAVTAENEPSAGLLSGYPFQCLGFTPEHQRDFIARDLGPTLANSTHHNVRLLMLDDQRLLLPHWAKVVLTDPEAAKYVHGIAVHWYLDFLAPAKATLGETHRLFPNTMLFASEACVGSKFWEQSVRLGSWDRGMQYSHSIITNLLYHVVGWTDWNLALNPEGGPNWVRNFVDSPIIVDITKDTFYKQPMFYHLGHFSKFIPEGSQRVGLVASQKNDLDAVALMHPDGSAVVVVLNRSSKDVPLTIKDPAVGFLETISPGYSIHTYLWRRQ

Potency, inactive:
CCOC(=O)COc1ccc2nsnc2c1 > 76.9 µM
O=C(c1ccco1)N1CCN(c2nc3ccccc3c(=O)n2-c2ccccc2)CC1 > 76.9 µM
Cc1ccc(C)c(NC(=O)CSc2nnc(-c3ccncc3)n2N)c1 > 76.9 µM
O=C(NCCc1ccccc1)C1CCCN1C(=O)NCc1ccccc1 (configuration not stated) > 76.9 µM
O=S(=O)(Nc1ccccc1N1CCOCC1)c1ccc(Cl)s1 > 76.9 µM
Cc1ccsc1C(=O)OCc1csc(-c2ccccc2)n1 > 76.9 µM
CCCn1c(N2CCN(CC(=O)NCc3cccs3)CC2)nc2ccccc21 > 76.9 µM
CCCS(=O)(=O)N1CCC(C(=O)NCCN2CCC(Cc3ccccc3)CC2)CC1 > 76.9 µM
COc1ccc(C(=O)NC2CCN(S(=O)(=O)Cc3ccccc3)CC2)c(OC)c1 > 76.9 µM
COc1ccc(CCn2c(SCC(=O)Nc3cc(C)on3)nc3ccsc3c2=O)cc1OC > 76.9 µM
CN(C)S(=O)(=O)c1ccc(/C(O)=C2/C(=O)C(=O)N(Cc3cccnc3)C2c2ccco2)cc1 (configuration not stated) > 76.9 µM
O=c1[nH]c(CN2CCN(C/C=C/c3ccccc3)CC2)nc2ccccc12 > 76.9 µM
CCn1nc(NC(=O)c2ccncc2)c2cc3cc(C)ccc3nc21 > 76.9 µM
CCc1c(C)c2nncn2[nH]c1=O > 76.9 µM
COc1ccc(-c2nc(N)ncc2-c2csc(C)n2)c(O)c1 > 76.9 µM
O=C(CSc1nc2ccccc2o1)NC(=O)NCc1ccco1 > 76.9 µM
C=CCn1c(SCn2nnc3ccccc3c2=O)nc2scc(-c3cccs3)c2c1=O > 76.9 µM
CCc1nc(NCCN2CCOCC2)c2oc3ccccc3c2n1 > 76.9 µM
Cc1cnc(NC(=O)CN(C)S(=O)(=O)c2ccc(Cl)cc2)s1 > 76.9 µM
Cc1ccc(N(CC(=O)N2CCc3ccccc32)C2=NC(=O)CS2)cc1 > 76.9 µM
COc1ccc(CNc2nc3nc(-c4ccccc4)cc(=O)n3[nH]2)cc1OC > 76.9 µM
CC(C)OCCCNC(=O)C1CCC(=O)N1C(C)C (configuration not stated) > 76.9 µM
COCCn1c(CN2CCC(Cc3ccccc3)CC2)nc2c1c(=O)n(C)c(=O)n2C > 76.9 µM
CCC(Sc1ccccn1)C(=O)Nc1nnc(C)s1 (configuration not stated) > 76.9 µM
COc1ccccc1/C=c1\sc2nc(-c3cccs3)nn2c1=O > 76.9 µM
Cc1ccc(CNc2oc(-c3cccs3)nc2C#N)cc1 > 76.9 µM
Cc1ccc(CSc2nc3c(c(=O)[nH]2)C(c2ccncc2)C2=C(CCCC2=O)N3)cc1 (configuration not stated) > 76.9 µM
Cc1cc(C(=O)O)c(S(C)(=O)=O)s1 > 76.9 µM
COc1ccc2c(c1OC)C(=O)NC(C)=C(C(=O)OC(C)(C)C)C2O (configuration not stated) > 76.9 µM
Cc1ccc2c(c1)C1C=CCC1C(C(=O)O)N2 (configuration not stated)
CC1Oc2ccccc2N(CC(=O)c2ccccc2)C1=O (configuration not stated) > 76.9 µM
CC1CCN(Cc2nc3c(c(=O)n(C)c(=O)n3C)n2CCc2ccccc2)CC1 > 76.9 µM
Brc1cnc(N2CCOCC2)nc1N1CCCCC1 > 76.9 µM
CCOc1ccccc1N1CCN(C(=O)c2cc[n+]([O-])cc2)CC1 > 76.9 µM
Cc1csc(NC(=O)CN2CCCCCC2)n1 > 76.9 µM
CC(C)OC(=O)c1nnn(-c2nonc2N)c1CN1CCCCCC1 > 76.9 µM
Cc1nn2c3c(cnc2c1-c1ccc(Cl)cc1)C(=O)CC(c1ccco1)C3 (configuration not stated) > 76.9 µM
C=CCn1c(=O)c(C(=O)Nc2ccccc2C(=O)OCC)c(O)c2ccccc21 > 76.9 µM
COCCn1c(SC(C)C(=O)Nc2ccc3c(c2)OCCO3)nc2ccccc2c1=O (configuration not stated) > 76.9 µM
CC(O)C(O)C(O)C(O)C1NCCS1 (configuration not stated) > 76.9 µM
COc1ccc(S(=O)(=O)N2CCN(C(=O)[C@@H]3CCC(=O)N3C3OC(=O)c4ccccc43)CC2)cc1 (some centres not stated) > 76.9 µM
CC(C)(C)OC(=O)NC(CCCCNC=O)C(=O)O (configuration not stated) > 76.9 µM
COc1cccc(C(=O)CSc2nnc(CNc3nc(-c4ccccc4)cs3)n2C)c1
Cc1noc(C)c1C(=O)Nc1nc(C23CC4CC(CC(C4)C2)C3)cs1 > 76.9 µM
Cc1ccnc(SCC(=O)O)n1 > 76.9 µM
CC(C)(C)n1nnnc1C(c1cccc(C#N)c1)N1CCCc2ccccc21 (configuration not stated) > 76.9 µM
CCn1c(=O)c(=O)[nH]c2cc(C(=O)N3CCN(c4ccccc4F)CC3)ccc21 > 76.9 µM
N#CC1=C(N)C2=C(N3CCCCC3)CCCC2C1(C#N)C#N (configuration not stated) > 76.9 µM
COC(=O)c1ccc(Cn2nc(C)c(Br)c2C)cc1 > 76.9 µM
COc1ccc(CCN2C(=O)CC(N3CCN(c4ccccn4)CC3)C2=O)cc1OC (configuration not stated) > 76.9 µM
CCC1CCCCN1CCn1c(=S)[nH]c2cc(OC)c(OC)cc2c1=O (configuration not stated) > 76.9 µM
O=C(NCCSCc1ccccc1)c1cc(S(=O)(=O)N2CCOCC2)ccc1F > 76.9 µM
CN(C)S(=O)(=O)c1ccc(Oc2ccccc2)cc1 > 76.9 µM
CC1=C(C(=O)N2CCOCC2)C(c2ccccc2F)C2=C(CCCC2=O)N1 (configuration not stated) > 76.9 µM
CC(=O)N1CCCc2cc(S(=O)(=O)N3CCN(C4CCCCC4)CC3)ccc21 > 76.9 µM
O=C(NCc1ccco1)C(C(=O)c1ccc(F)cc1)n1ccccc1=O (configuration not stated) > 76.9 µM
CCOc1cc(C(=O)OCc2ccc(C(=O)OC)o2)cc(Br)c1OC > 76.9 µM
COc1cccc(OCC(O)CN2C(C)CCCC2C)c1 (configuration not stated) > 76.9 µM
Cc1cc(C)nc(NC(=O)CSc2ccccn2)n1 > 76.9 µM
O=C(NCC1CCCO1)c1cccc(NC(=O)c2ccco2)c1 (configuration not stated) > 76.9 µM
Clc1ccc(-c2nnc(SCc3ccon3)o2)c(Cl)c1 > 76.9 µM
CCOC(=O)c1cc(C(=O)c2cc(F)ccc2O)coc1=N > 76.9 µM
O=C(CCn1nc(-c2ccc(Cl)cc2)ccc1=O)N1CCOCC1 > 76.9 µM
c1nc(NCC2CCCO2)c2[nH]cnc2n1 (configuration not stated) > 76.9 µM
CN(C)c1ccnc2sc3c(=O)n(-c4ccccc4)cnc3c12 > 76.9 µM
CC(C)(C)OC(=O)NC(CCNC=C1C(=O)OC(C)(C)OC1=O)C(=O)O (configuration not stated) > 76.9 µM
O=C(Nc1ccc(N2CCOCC2)cc1)C1CCCN(S(=O)(=O)c2cccc(C(F)(F)F)c2)C1 (configuration not stated) > 76.9 µM
CCOc1ccc(OCc2ccc(C(=O)N3CCCC3)o2)cc1 > 76.9 µM
O=C(O)CCN1Cc2ccccc2C1=O > 76.9 µM
CCc1c(C(=O)Nc2ccc(S(=O)(=O)N3CCOCC3)cc2)csc1C > 76.9 µM
COC(=O)c1oc2ccc(Br)cc2c1NC(=O)CN1CCN(C)CC1 > 76.9 µM
Cc1ccccc1CS(=O)(=O)Cc1ccc(C(=O)NCC2CCCO2)o1 (configuration not stated) > 76.9 µM
O=C(CSc1ncn[nH]1)NCCCc1ccccc1 > 76.9 µM
COC(=O)c1c(N)n(-c2ccc(NC(C)=O)cc2)c2nc3ccccc3nc12
COn1c(SCc2cccnc2)nc2ccccc2c1=O > 76.9 µM
CCCOc1ccc(C(=O)N2CCCC2)cc1OC > 76.9 µM
CCc1cc(=O)oc2cc(OC(C)C(=O)O)c(Cl)cc12 (configuration not stated) > 76.9 µM
CCOC(=O)c1cc(-c2nnc(SCC(=O)Nc3ccc(F)cc3)o2)c(C)nc1C > 76.9 µM
COC(=O)c1c(NC(C)=O)sc2c1CCCC2 > 76.9 µM
COc1ccc(S(=O)(=O)N2CCN(c3nc4ccccc4nc3-n3nc(C)cc3C)CC2)cc1 > 76.9 µM
COc1ccc(N2CCN(C(=O)CSc3ncnc4c3cnn4-c3ccccc3C)CC2)cc1 > 76.9 µM
COc1cccc2cc(C(=O)N3CCN(c4ncccn4)CC3)c(=O)oc12 > 76.9 µM
O=C(NCC(=O)N(c1cnc2ccccc2c1)C(C(=O)NC1CCCC1)c1ccncc1)c1ccco1 (configuration not stated) > 76.9 µM
COC(=O)c1ccc(NC(=O)CCN2CCCCC2)cc1 > 76.9 µM
CC(=O)Nc1ccc(C(=O)n2nc(C)cc2C)cc1 > 76.9 µM
CCc1nnc(NC(=O)CN2CCN(C3CCCCC3)CC2)s1 > 76.9 µM
O=C(OCCN1CCCCC1)c1ccccc1Cl > 76.9 µM
c1ccc(-c2nnc3n2NC(c2ccc4c(c2)OCO4)S3)cc1 (configuration not stated) > 76.9 µM
COc1ccc(OC)c(S(=O)(=O)Nc2ccc(O)c3ccccc23)c1 > 76.9 µM
COc1ccc(OCCC(=O)NC2=NCCS2)cc1 > 76.9 µM
COc1ccc(C)cc1NC(=O)CSc1nnc(-c2cc3cccc(OC)c3o2)n1N > 76.9 µM
COc1ccc(-c2nn(-c3ccccc3)cc2/C=N/n2cnnc2)cc1OC > 76.9 µM
